# Reference: PubChem BioAssay AID2546 (National Center for Advancing Translational Sciences (NCATS), 2010)
# In all, about 310,000 compounds went through this assay and about 11,000 (3.5%) were called active. Inconclusive means that the source gave no clear call. Such entries were picked first, then a sample of the others. The call rests on the fitted dose curve; in most records, active means well fitted inhibition curve with a large enough effect; inconclusive means small, poorly fitted or top-dose-only effect, or effect the other way; inactive means flat fitted curve, though single readings scatter. Potencies of inconclusive entries are left out as doubtful fits.
# Test: VP16 counterscreen qHTS for inhibitors of ROR gamma transcriptional activity;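 further: Gal4-VP16 expression switched on by copper sulfate through the metallothionein promoter; nearly all actives have a fitted effect of over 50% in size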
# Settings: Drosophila S2 Gal4-VP16 UAS-luciferase, luminescence, 20 h; series mostly up to 53.6 µM
# Potency means the concentration at half of the fitted maximal effect; tags describe the fitted curve by direction and shape.
row,SMILES,Potency
1,CCOC(=O)C1=C(c2cccc(Oc3ccccc3)c2)NC(=S)NC1C (stereo not given),"inconclusive [inhibitor, single point]"
2,Cc1ccc(N(CC(=O)NCc2ccc(F)cc2)S(=O)(=O)c2c(C)n[nH]c2C)cc1,"inconclusive [inhibitor, partial curve]"
3,CCCCN1C2=NCCCN2c2ccccc21,inactive
4,CCCCOC(=O)C1CN(c2ccccc2)N=C1C(=O)OCC (stereo not given),inactive
5,CC1(C)Cc2c(C#N)c(N3CCCC3)nc(-c3ccco3)c2CO1,inactive
6,O=C(CCC(=O)Nc1nnc(C2CCCCC2)s1)Nc1ccc(F)cc1,"inconclusive [inhibitor, single point]"
7,COc1cccc(NC(=O)c2ccco2)c1,inactive
8,COc1ccc(NC(=O)c2cc3ccc(O)cc3o/c2=N\O)cc1,active: 0.1 µM
9,O=C(c1sc2cc([N+](=O)[O-])ccc2c1Cl)N1CCCCC1,"inconclusive [activator, single point]"
10,O=C(Cc1cccs1)NCc1ccc(F)cc1,inactive
11,CCOC(=O)/C=C1\CN(Cc2cc(OC)c(OC)c(OC)c2)S(=O)(=O)c2ccccc21,"inconclusive [inhibitor, single point]"
12,O=C(NCC(O)CO)c1csc(Nc2cccc3ccccc23)n1 (stereo not given),"inconclusive [inhibitor, single point]"
13,CC(=O)c1c(C)[nH]c(C(=O)CSc2ncnc3sc(-c4ccccc4)cc23)c1C,"inconclusive [inhibitor, partial curve, poor fit]"
14,COc1cc(NC(=O)Cn2nc(C(F)(F)F)c3c2CCCC3)cc(OC)c1OC,"inconclusive [inhibitor, single point]"
15,CC1CC(C)CN(C(=O)CCCn2c(=S)[nH]c3ccccc3c2=O)C1 (stereo not given),active: 12.6 µM
16,Oc1ccccc1/C=N/Nc1ncc(Br)cn1,"inconclusive [inhibitor, single point]"
17,CCN(/C=N/c1sc2c(c1C#N)CCCCC2)CC,"inconclusive [inhibitor, single point]"
18,CC(=O)Nc1nc2n(n1)C(c1ccc(Cl)cc1)C=C(C)N2 (stereo not given),inactive
19,CCCCNC(=S)N(C)/N=C/c1c(F)c(F)c(F)c(F)c1F,inactive
20,COc1cccc(C(=O)C(C#N)=C(SC)SC)c1,"inconclusive [inhibitor, single point]"
21,CCCOC(=O)CCc1n[nH]c(=O)[nH]c1=O,inactive
22,COc1cccc(C(=O)Nc2nc(-c3ccccc3)c(-c3ccccc3)o2)c1,active: 3.16 µM
23,COc1ccc(/C=C2\SC(N3CCc4ccccc4C3)=NC2=O)cc1OC,inactive
24,CC(C)CCNC(=O)c1ccc(Cn2c(=S)[nH]c3ccccc3c2=O)cc1,"inconclusive [inhibitor, partial curve]"
25,COc1ccc(NC(=O)/C(Cl)=C(/Cl)S(=O)Cc2ccccc2Cl)cn1 (stereo not given),active: 4.47 µM

row,SMILES,Potency
1,O=C(NCCCN1CCN(Cc2ccccc2Cl)CC1)Nc1ccccc1,inactive
2,Cc1c(Cl)cccc1NC(=S)NN,active: 10 µM
3,O=C(NNc1ccccc1Br)C(O)(c1cccc(C(F)(F)F)c1)c1cccc(C(F)(F)F)c1,"inconclusive [inhibitor, single point]"
4,CCN(CC)CCCn1c(=S)[nH]c2ccc(Cl)cc2c1=O,"inconclusive [inhibitor, single point]"
5,COc1ccc(C2OCC3(CO2)SC(=O)NC3=O)cc1 (stereo not given),"inconclusive [inhibitor, single point]"
6,COc1ccc(S(=O)(=O)Cc2ccc(C(=O)NC(C)C)o2)cc1,inactive
7,CCc1cc2c(N3CCN(c4nnc(CC)s4)CC3)ncnc2s1,"inconclusive [inhibitor, single point]"
8,CN(NS(C)(=O)=O)c1ncc(C(F)(F)F)cc1Cl,"inconclusive [inhibitor, single point]"
9,NC(=O)CC(NC(=O)Cc1ccc(Cl)cc1)c1ccc(NCc2ccccc2)c([N+](=O)[O-])c1 (stereo not given),inactive
10,CN1c2ccc(Cl)cc2C(=O)NC1c1ccc([N+](=O)[O-])s1 (stereo not given),"inconclusive [activator, partial curve]"
11,S=c1[nH]nc([C@@H]2C[C@H]2c2ccccc2)n1-c1ccccc1Cl,active: 10 µM
12,CN(C)c1ccc(/C=C(/C#N)C(=O)NCc2ccccc2)o1,"inconclusive [activator, single point]"
13,Cc1nc(NC(=O)CSc2nnc(Cn3nnc4ccccc43)n2C)sc1C,inactive
14,Cc1cc(C)c2nc(N3CCCC(C(=O)N4CCC(C(N)=O)CC4)C3)sc2c1 (stereo not given),"inconclusive [inhibitor, single point]"
15,CCOc1ccc(NC(=S)Nc2ccc(C)c([N+](=O)[O-])c2)cc1,"inconclusive [inhibitor, single point]"
16,COCCn1c(=O)c(-c2cccc(Cl)c2)nc2cncnc21,inactive
17,O=C(CN1CCCCCCC1)N/N=C/c1ccc([N+](=O)[O-])o1,"inconclusive [inhibitor, single point]"
18,COc1c(O)ccc(/C=N\NC(=O)c2ccc3c(c2)OCO3)c1[N+](=O)[O-],"inconclusive [inhibitor, partial curve]"
19,CC(C)c1cc(C(=O)NC2CCCc3c2cnn3-c2ccccc2F)no1 (stereo not given),active: 11.2 µM
20,Cc1cccc(-c2nc3ccc(C(=O)NCCN4CCN(C)CC4)cc3nc2-c2cccc(C)c2)c1,"inconclusive [inhibitor, single point]"
21,Cc1cnc(CNC(=O)CC2C(=O)NCCN2Cc2ccccc2F)cn1 (stereo not given),"inconclusive [inhibitor, single point]"
22,N#Cc1ccccc1CSc1nc2ccsc2c(=O)n1Cc1ccccn1,"inconclusive [activator, single point]"
23,CCC(=O)Nc1nc(=S)ss1,"inconclusive [inhibitor, partial curve]"
24,C=CCC(O)(C#Cc1ccccc1)c1ccccc1 (stereo not given),inactive
25,O=C(NCCCN1CCCC1=O)C(=O)NCC1OCCN1S(=O)(=O)c1ccc(Br)cc1 (stereo not given),inactive

row,SMILES,Potency
1,O=C(COc1ccc(Cl)cc1Cl)Nc1ccc(Cl)cn1,"inconclusive [inhibitor, single point]"
2,Cc1c(C(=O)Nc2ccc(S(=O)(=O)Nc3ncccn3)cc2)oc2ccc(Cl)cc12,inactive
3,Cc1n(Cc2ccccc2)c2ccccc2[n+]1Cc1ccccc1,"inconclusive [inhibitor, single point]"
4,CSc1nncc(/C(C)=N/O)n1,inactive
5,N#Cc1c(NC(=O)CSCC(=O)O)sc2c1CCCC2,"inconclusive [inhibitor, partial curve]"
6,Cc1nc(NC(=O)c2ccccc2)sc1-c1csc(NCc2ccco2)n1,"inconclusive [inhibitor, single point]"
7,O[C@@](CCN1CCCCC1)(c1ccccc1)C1CCCCC1,inactive
8,Cc1c(C(=O)OCC(=O)N2CCCC2)cccc1[N+](=O)[O-],inactive
9,O=C(Cc1ccc(-n2c(=O)[nH]c3ccccc3c2=O)cc1)N1CCN(c2ccccc2)CC1,"inconclusive [inhibitor, single point]"
10,CN(C(=O)COC(=O)c1cc(F)c(F)cc1Cl)c1ccccc1,"inconclusive [activator, single point]"
11,N/C(=N\OC(=O)c1ccc(Cl)cc1Cl)c1ccccc1,"inconclusive [inhibitor, partial curve]"
12,CCn1cc(C(=O)O)c(=O)c2cc(F)c(N/N=C/c3ccccc3[N+](=O)[O-])cc21,"inconclusive [inhibitor, single point]"
13,Cc1ccccc1-n1sc2cc(F)ccc2c1=O,active: 2.82 µM
14,O=C1c2cnc3nc(SCc4cccc(Cl)c4)nn3c2CC2c3ccccc3CCN12 (stereo not given),inactive
15,Cc1ccccc1C(=O)c1cccn1CC(=O)NCc1ccccc1Cl,"inconclusive [inhibitor, single point]"
16,C/C(N)=C(/C#N)C(=O)COC(=O)C1CCC(C(C)(C)C)CC1 (stereo not given),"inconclusive [inhibitor, single point]"
17,O=C1c2ccccc2-c2onc3c(N4CCN(CCO)CC4)cc(N4CCN(C(=O)c5ccco5)CC4)c1c23,"inconclusive [inhibitor, single point]"
18,CCOC(=O)N1CCN(C(=O)c2ccc3c(=O)n(Cc4ccc(OC)cc4)c(=S)[nH]c3c2)CC1,"inconclusive [activator, single point]"
19,CCN(CC)CCCN(C(=O)c1ccc(OC)cc1)c1nc(-c2ccc(OC)cc2)cs1,inactive
20,COc1ccc(/C=N/c2oc(-c3ccccc3)cc2C#N)cc1OC,"inconclusive [inhibitor, partial curve]"
21,CCCN(CCC)C1CC(=O)N(Cc2ccccc2)C1=O (stereo not given),"inconclusive [inhibitor, single point]"
22,COCCNC(=S)NNc1ccccc1[N+](=O)[O-],active: 11.2 µM
23,CCOC(=O)c1cnc(Nc2nc3ccccc3o2)nc1C,"inconclusive [inhibitor, single point]"
24,CCOC(=O)Cn1c(=NC(=O)CSC(C)=O)sc2ccccc21,"inconclusive [activator, partial curve]"
25,COc1cc(/C=N/NC(N)=S)ccc1OC(=O)c1ccc(C)cc1,"inconclusive [inhibitor, single point]"
